From the supplement of paper PMC4604168 (melanoma cell lines)
The other results are listed elsewhere or left out. Many values rest on one well or one pass, so single values are uncertain.

test system: COLO829; assay: cell count relative to DMSO control; melanoma cells; higher = more viable cells; conditions: library dose: low library concentration; 72 h
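Note: cell number obtained by counting DAPI-stained nuclei in high-throughput microscope images with image analysis software, screen run in 1,536-well plates.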

SMILES | cell count [%]
C[C@]12O[C@H](C[C@]1(O)CO)n1c3ccccc3c3c4c(c5c6ccccc6n2c5c31)CNC4=O [Lestaurtinib] + OCc1c[nH]c2ccccc12 [Indole-3-carbinol] (first compound 0.004 µM, partner dose 0.8 µM) | 113
C[C@]12O[C@H](C[C@]1(O)CO)n1c3ccccc3c3c4c(c5c6ccccc6n2c5c31)CNC4=O [Lestaurtinib] + CO[C@H]1C[C@@H]2CC[C@@H](C)[C@@](O)(O2)C(=O)C(=O)N2CCCC[C@H]2C(=O)O[C@H]([C@H](C)C[C@@H]2CC[C@@H](OCCO)[C@H](OC)C2)CC(=O)[C@H](C)/C=C(\C)[C@@H](O)[C@@H](OC)C(=O)[C@H](C)C[C@H](C)/C=C/C=C/C=C/1C [everolimus] (first compound 0.004 µM, partner dose 0.02 µM) | 78.4
C[C@]12O[C@H](C[C@]1(O)CO)n1c3ccccc3c3c4c(c5c6ccccc6n2c5c31)CNC4=O [Lestaurtinib] + Cn1c(=O)n(-c2ccc(C(C)(C)C#N)cc2)c2c3cc(-c4cnc5ccccc5c4)ccc3ncc21 [NVP-BEZ235] (first compound 0.004 µM, partner dose 0.004 µM) | 95.4
C[C@]12O[C@H](C[C@]1(O)CO)n1c3ccccc3c3c4c(c5c6ccccc6n2c5c31)CNC4=O [Lestaurtinib] + Nc1ccn([C@@H]2O[C@H](CO)[C@@H](O)C2(F)F)c(=O)n1 [gemcitabine] (first compound 0.004 µM, partner dose 0.0004 µM) | 87.8
